In the supplement of paper PMC12230231:
± gives the standard deviation of the averaged measurements. Restriction of a single-cycle SIVsab GFP reporter by TRIM5α v1-loop variants in CRFK cells. Human variants: read share among cells still uninfected after two challenges over input, higher = gained restriction. Rhesus variants: share among infected cells over input, higher = lost restriction. Reporter dose not given per row. No active / inactive call per row; the paper calls a change when both replicates lie above its controls (mean + 2 SD of stop or wild-type variants, or the top frameshift score). Residues outside the varied loop are taken from Swiss-Prot. The paper reads the human single-substitution scores as noise; they and the rhesus combinations repeat poorly (rank correlation 0.3 to 0.4), indel scores repeat only for the top variants, rhesus substitutions well (0.9).

test system: SIVsab (simian immunodeficiency virus of sabaeus monkeys), single-cycle GFP reporter, in CRFK cells; assay: enrichment among uninfected cells over input (fold); higher = stronger restriction; conditions: library: human / rhesus combinations
Protocol: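 Pools of CRFK cells expressing variants of the TRIM5α v1 loop were challenged with the single-cycle reporter, sorted by GFP and sequenced; mean of two replicates.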

Sequence	enrichment
MASGILVNVKEEVTCPICLELLTQPLSLDCGHSFCQACLTANHKKSMLDKGESSCPVCRISYQPENIRPNRHVANIVEKLREVKLSPEGQKVDHCARHGEKLLLFCQEDGKVICWLCERSQEHRGHHTFLTEEVAREYQVKLQAALEMLRQKQQEAEELEADIREEKASWKTQIQYDKTNVLADFEQLRDILDWEESNELQNLEKEEEDILKSLTNSETEMVQQTQSLRELISDLEHRLQGSVMELLQGVDGVIKRTENVTLKKPETFPKNQRRVFRAPDLKGMLEVFRELTDVRRYWVDVTVAPNNISCAVISEDKRQVSSPKPQIIYQARGTLFTFPSLTNFNYCTGILGSQSITSGKHYWEVDVSKKTAWILGVCAGFQPDAMCNIEKNENYQPKYGYWVIGLEEGVKCSAFQDSSFHTPSVPFIVPLSVIICPDRVGVFLDYEACTVSFFNITNHGFLIYKFSHCSFSQPVFPYLNPRKCGVPMTLCSPSS [human TRIM5α, 330-340 = QARGTLFTFPSLT]	0.781 ± 0.34
MASGILVNVKEEVTCPICLELLTQPLSLDCGHSFCQACLTANHKKSMLDKGESSCPVCRISYQPENIRPNRHVANIVEKLREVKLSPEGQKVDHCARHGEKLLLFCQEDGKVICWLCERSQEHRGHHTFLTEEVAREYQVKLQAALEMLRQKQQEAEELEADIREEKASWKTQIQYDKTNVLADFEQLRDILDWEESNELQNLEKEEEDILKSLTNSETEMVQQTQSLRELISDLEHRLQGSVMELLQGVDGVIKRTENVTLKKPETFPKNQRRVFRAPDLKGMLEVFRELTDVRRYWVDVTVAPNNISCAVISEDKRQVSSPKPQIIYQAPGTRYTFPSLTNFNYCTGILGSQSITSGKHYWEVDVSKKTAWILGVCAGFQPDAMCNIEKNENYQPKYGYWVIGLEEGVKCSAFQDSSFHTPSVPFIVPLSVIICPDRVGVFLDYEACTVSFFNITNHGFLIYKFSHCSFSQPVFPYLNPRKCGVPMTLCSPSS [human TRIM5α, 330-340 = QAPGTRYTFPSLT]	0.254 ± 0.14
MASGILVNVKEEVTCPICLELLTQPLSLDCGHSFCQACLTANHKKSMLDKGESSCPVCRISYQPENIRPNRHVANIVEKLREVKLSPEGQKVDHCARHGEKLLLFCQEDGKVICWLCERSQEHRGHHTFLTEEVAREYQVKLQAALEMLRQKQQEAEELEADIREEKASWKTQIQYDKTNVLADFEQLRDILDWEESNELQNLEKEEEDILKSLTNSETEMVQQTQSLRELISDLEHRLQGSVMELLQGVDGVIKRTENVTLKKPETFPKNQRRVFRAPDLKGMLEVFRELTDVRRYWVDVTVAPNNISCAVISEDKRQVSSPKPQIIYQARGTRYTFQTLTNFNYCTGILGSQSITSGKHYWEVDVSKKTAWILGVCAGFQPDAMCNIEKNENYQPKYGYWVIGLEEGVKCSAFQDSSFHTPSVPFIVPLSVIICPDRVGVFLDYEACTVSFFNITNHGFLIYKFSHCSFSQPVFPYLNPRKCGVPMTLCSPSS [human TRIM5α, 330-340 = QARGTRYTFQTLT]	0.205 ± 0.12
MASGILVNVKEEVTCPICLELLTQPLSLDCGHSFCQACLTANHKKSMLDKGESSCPVCRISYQPENIRPNRHVANIVEKLREVKLSPEGQKVDHCARHGEKLLLFCQEDGKVICWLCERSQEHRGHHTFLTEEVAREYQVKLQAALEMLRQKQQEAEELEADIREEKASWKTQIQYDKTNVLADFEQLRDILDWEESNELQNLEKEEEDILKSLTNSETEMVQQTQSLRELISDLEHRLQGSVMELLQGVDGVIKRTENVTLKKPETFPKNQRRVFRAPDLKGMLEVFRELTDVRRYWVDVTVAPNNISCAVISEDKRQVSSPKPQIIYQARGTRFTFQSLVNFNYCTGILGSQSITSGKHYWEVDVSKKTAWILGVCAGFQPDAMCNIEKNENYQPKYGYWVIGLEEGVKCSAFQDSSFHTPSVPFIVPLSVIICPDRVGVFLDYEACTVSFFNITNHGFLIYKFSHCSFSQPVFPYLNPRKCGVPMTLCSPSS [human TRIM5α, 330-340 = QARGTRFTFQSLV]	0.11 ± 0.043
MASGILVNVKEEVTCPICLELLTQPLSLDCGHSFCQACLTANHKKSMLDKGESSCPVCRISYQPENIRPNRHVANIVEKLREVKLSPEGQKVDHCARHGEKLLLFCQEDGKVICWLCERSQEHRGHHTFLTEEVAREYQVKLQAALEMLRQKQQEAEELEADIREEKASWKTQIQYDKTNVLADFEQLRDILDWEESNELQNLEKEEEDILKSLTNSETEMVQQTQSLRELISDLEHRLQGSVMELLQGVDGVIKRTENVTLKKPETFPKNQRRVFRAPDLKGMLEVFRELTDVRRYWVDVTVAPNNISCAVISEDKRQVSSPKPQIIYGAPGTRFPSLVNFNYCTGILGSQSITSGKHYWEVDVSKKTAWILGVCAGFQPDAMCNIEKNENYQPKYGYWVIGLEEGVKCSAFQDSSFHTPSVPFIVPLSVIICPDRVGVFLDYEACTVSFFNITNHGFLIYKFSHCSFSQPVFPYLNPRKCGVPMTLCSPSS [human TRIM5α, 330-340 = GAPGTRFPSLV]	0.0993 ± 0.14

same assay, conditions: library: insertions and deletions

Sequence	enrichment
MASGILVNVKEEVTCPICLELLTQPLSLDCGHSFCQACLTANHKKSMLDKGESSCPVCRISYQPENIRPNRHVANIVEKLREVKLSPEGQKVDHCARHGEKLLLFCQEDGKVICWLCERSQEHRGHHTFLTEEVAREYQVKLQAALEMLRQKQQEAEELEADIREEKASWKTQIQYDKTNVLADFEQLRDILDWEESNELQNLEKEEEDILKSLTNSETEMVQQTQSLRELISDLEHRLQGSVMELLQGVDGVIKRTENVTLKKPETFPKNQRRVFRAPDLKGMLEVFRELTDVRRYWVDVTVAPNNISCAVISEDKRQVSSPKPQIIYGARGTQTFVNFNYCTGILGSQSITSGKHYWEVDVSKKTAWILGVCAGFQPDAMCNIEKNENYQPKYGYWVIGLEEGVKCSAFQDSSFHTPSVPFIVPLSVIICPDRVGVFLDYEACTVSFFNITNHGFLIYKFSHCSFSQPVFPYLNPRKCGVPMTLCSPSS [human TRIM5α, 2-codon deletion at 335]	1.85 ± 2.5
MASGILVNVKEEVTCPICLELLTQPLSLDCGHSFCQACLTANHKKSMLDKGESSCPVCRISYQPENIRPNRHVANIVEKLREVKLSPEGQKVDHCARHGEKLLLFCQEDGKVICWLCERSQEHRGHHTFLTEEVAREYQVKLQAALEMLRQKQQEAEELEADIREEKASWKTQIQYDKTNVLADFEQLRDILDWEESNELQNLEKEEEDILKSLTNSETEMVQQTQSLRELISDLEHRLQGSVMELLQGVDGVIKRTENVTLKKPETFPKNQRRVFRAPDLKGMLEVFRELTDVRRYWVDVTVAPNNISCAVISEDKRQVSSPKPQIIYGYQTFVNFNYCTGILGSQSITSGKHYWEVDVSKKTAWILGVCAGFQPDAMCNIEKNENYQPKYGYWVIGLEEGVKCSAFQDSSFHTPSVPFIVPLSVIICPDRVGVFLDYEACTVSFFNITNHGFLIYKFSHCSFSQPVFPYLNPRKCGVPMTLCSPSS [human TRIM5α, 5-codon deletion at 331]	0.873 ± 0.55
MASGILVNVKEEVTCPICLELLTQPLSLDCGHSFCQACLTANHKKSMLDKGESSCPVCRISYQPENIRPNRHVANIVEKLREVKLSPEGQKVDHCARHGEKLLLFCQEDGKVICWLCERSQEHRGHHTFLTEEVAREYQVKLQAALEMLRQKQQEAEELEADIREEKASWKTQIQYDKTNVLADFEQLRDILDWEESNELQNLEKEEEDILKSLTNSETEMVQQTQSLRELISDLEHRLQGSVMELLQGVDGVIKRTENVTLKKPETFPKNQRRVFRAPDLKGMLEVFRELTDVRRYWVDVTVAPNNISCAVISEDKRQVSSPKIIYGARGTRYQTFVNFNYCTGILGSQSITSGKHYWEVDVSKKTAWILGVCAGFQPDAMCNIEKNENYQPKYGYWVIGLEEGVKCSAFQDSSFHTPSVPFIVPLSVIICPDRVGVFLDYEACTVSFFNITNHGFLIYKFSHCSFSQPVFPYLNPRKCGVPMTLCSPSS [human TRIM5α, 2-codon deletion at 325]	0.522 ± 0.026
MASGILVNVKEEVTCPICLELLTQPLSLDCGHSFCQACLTANHKKSMLDKGESSCPVCRISYQPENIRPNRHVANIVEKLREVKLSPEGQKVDHCARHGEKLLLFCQEDGKVICWLCERSQEHRGHHTFLTEEVAREYQVKLQAALEMLRQKQQEAEELEADIREEKASWKTQIQYDKTNVLADFEQLRDILDWEESNELQNLEKEEEDILKSLTNSETEMVQQTQSLRELISDLEHRLQGSVMELLQGVDGVIKRTENVTLKKPETFPKNQRRVFRAPDLKGMLEVFRELTDVRRYWVDVTVAPNNISCAVISEDKRQVSSPKPQIIYKPQIIYGARGTRYQTFVNFNYCTGILGSQSITSGKHYWEVDVSKKTAWILGVCAGFQPDAMCNIEKNENYQPKYGYWVIGLEEGVKCSAFQDSSFHTPSVPFIVPLSVIICPDRVGVFLDYEACTVSFFNITNHGFLIYKFSHCSFSQPVFPYLNPRKCGVPMTLCSPSS [human TRIM5α, 6-codon duplication at 324]	0.769 ± 0.16
MASGILVNVKEEVTCPICLELLTQPLSLDCGHSFCQACLTANHKKSMLDKGESSCPVCRISYQPENIRPNRHVANIVEKLREVKLSPEGQKVDHCARHGEKLLLFCQEDGKVICWLCERSQEHRGHHTFLTEEVAREYQVKLQAALEMLRQKQQEAEELEADIREEKASWKTQIQYDKTNVLADFEQLRDILDWEESNELQNLEKEEEDILKSLTNSETEMVQQTQSLRELISDLEHRLQGSVMELLQGVDGVIKRTENVTLKKPETFPKNQRRVFRAPDLKGMLEVFRELTDVRRYWVDVTVAPNNISCAVISEDKRQVSSPKPQIIYGYGARGTRYQTFVNFNYCTGILGSQSITSGKHYWEVDVSKKTAWILGVCAGFQPDAMCNIEKNENYQPKYGYWVIGLEEGVKCSAFQDSSFHTPSVPFIVPLSVIICPDRVGVFLDYEACTVSFFNITNHGFLIYKFSHCSFSQPVFPYLNPRKCGVPMTLCSPSS [human TRIM5α, 2-codon duplication at 329]	0.98 ± 0.27
MASGILVNVKEEVTCPICLELLTQPLSLDCGHSFCQACLTANHKKSMLDKGESSCPVCRISYQPENIRPNRHVANIVEKLREVKLSPEGQKVDHCARHGEKLLLFCQEDGKVICWLCERSQEHRGHHTFLTEEVAREYQVKLQAALEMLRQKQQEAEELEADIREEKASWKTQIQYDKTNVLADFEQLRDILDWEESNELQNLEKEEEDILKSLTNSETEMVQQTQSLRELISDLEHRLQGSVMELLQGVDGVIKRTENVTLKKPETFPKNQRRVFRAPDLKGMLEVFRELTDVRRYWVDVTVAPNNISCAVISEDKRQVSSPKPQIIYGARGTRYQTFVNFNYCTGVNFNYCTGILGSQSITSGKHYWEVDVSKKTAWILGVCAGFQPDAMCNIEKNENYQPKYGYWVIGLEEGVKCSAFQDSSFHTPSVPFIVPLSVIICPDRVGVFLDYEACTVSFFNITNHGFLIYKFSHCSFSQPVFPYLNPRKCGVPMTLCSPSS [human TRIM5α, 8-codon duplication at 340]	2.66 ± 3.3
MASGILVNVKEEVTCPICLELLTQPLSLDCGHSFCQACLTANHKKSMLDKGESSCPVCRISYQPENIRPNRHVANIVEKLREVKLSPEGQKVDHCARHGEKLLLFCQEDGKVICWLCERSQEHRGHHTFLTEEVAREYQVKLQAALEMLRQKQQEAEELEADIREEKASWKTQIQYDKTNVLADFEQLRDILDWEESNELQNLEKEEEDILKSLTNSETEMVQQTQSLRELISDLEHRLQGSVMELLQGVDGVIKRTENVTLKKPETFPKNQRRVFRAPDLKGMLEVFRELTDVRRYWVDVTVAPNNISCAVISEDKRQVSSPKPQIIYGARGTRCTGILGSQSITSGKHYWEVDVSKKTAWILGVCAGFQPDAMCNIEKNENYQPKYGYWVIGLEEGVKCSAFQDSSFHTPSVPFIVPLSVIICPDRVGVFLDYEACTVSFFNITNHGFLIYKFSHCSFSQPVFPYLNPRKCGVPMTLCSPSS [human TRIM5α, 9-codon deletion at 336]	1.56 ± 1.3
